According to ChEMBL document CHEMBL4888484, “Replenishing the malaria drug discovery pipeline: Screening and hit evaluation of the MMV Hit Generation Library 1 (HGL1) against asexual blood stage Plasmodium falciparum ,using a nano luciferase reporter read-out” (2022):
Out of some 150,000 compounds screened, about 540 (0.36%) showed an effect of 50% or more. The list shows a part of the results.

System: Plasmodium falciparum
Experiment: Primary screen in NF54 nanoGlo assay, in single point, at 2uM, 72h; a lower Z score goes with more inhibition
Type: functional, Erythrocyte
Details: timepoint 72 hour

Row | SMILES | % Inhibition | Z score
1 | COCCN1CC[C@H](NCc2ccc3c(c2)CCO3)C1 | 6% | -0.83
2 | CN(C(=O)C1CCCCC1)c1ccc(NC(=O)C2CCCCC2)cc1Cl | 2% | -0.5
3 | Cc1ccccc1-c1nnsc1C(=O)N1CC2(CCC2)OC[C@@H]1C | -14% | 1.41
4 | CC(C)n1cnc(C(=O)OC[C@H]2CCOC2)c1 | -9% | 1.09
5 | CCN1CCC[C@H](CNCc2ccccc2OCc2cccnc2)C1 | 12% | -1.54
6 | c1ccc2c(c1)OC[C@H](CNCc1nc3c(s1)CCC3)O2 | -17% | 1.47
7 | CC[C@@]1(C)COCCN1C(=O)c1ccoc1Br | -14% | 2.28
8 | NC(=O)c1cncc(-c2cccc3cnccc23)n1 | -5% | 0.94
9 | CCCCOC(=O)Nc1ccc(C)c(Cl)c1 | -12% | 1.55
10 | Cc1cc(C2CCC2)nc(N2C[C@@H](CN(C)C)[C@@H](CO)C2)n1 | -1% | 0.17
11 | CCCCC(=O)N[C@]1(C(F)(F)F)C(=O)N(Cc2ccccc2)C(C)=C1C(=O)c1ccccc1 | -12% | 1.82
12 | Cc1cc(NC(=O)CN2CCc3nc(NC(=O)c4cnccn4)sc3C2)no1 | -9% | 1.48
13 | Cc1csc(NC(=O)c2csc(NC3CC3)n2)n1 | -5% | 0.97
14 | Cn1c(OC2COC2)nc2ccccc21 | 0% | 0.05
15 | Cc1ccccc1NC(=O)C1CN(S(=O)(=O)C2CC2)C1 | -7% | 1.08
16 | CCOc1ccc(S(=O)(=O)N2CCN(Cc3nc(-c4ccccc4OC)oc3C)CC2)cc1 | -12% | 1.62
17 | Cc1cnc(C(=O)NCc2ccccc2CN2CCOCC2)cn1 | -3% | 0.47
18 | CN(Cc1cccs1)C(=O)C1CCC(NC(=O)OC(C)(C)C)C1 (stereo not drawn) | 1% | -0.21
19 | Cc1cc(C)n(CCO[C@@H]2CCCCO2)n1 | -16% | 2.2
20 | COCCN1CCN(c2nc(-c3cc(F)ccc3F)c3c(N)n(Cc4ccccc4)nc3n2)CC1 | -1% | 0.13
21 | CCCCS(=O)(=O)N[C@@H](C)c1ccc(C#N)cc1 | -4% | 0.75
22 | CCc1ccc(S(=O)(=O)N2CCC3(CC2)c2cccn2-c2ccc(C)cc2N3CC)cc1 | -2% | 0.28
23 | COc1cc(OC)cc(-c2nc(-c3ccc(Oc4ccc(NC(C)=O)cc4)cc3)no2)c1 | 13% | -1.43
24 | COC(=O)C[C@@H](c1cccnc1)c1cc2c(cc1O)OCO2 | -1% | 0.13
25 | Cn1ccnc1[C@H](CCc1ccccc1)OC(=O)C1CCCCC1 | 4% | -0.41
26 | CC1CC(c2ccccc2)C(C)N1C(=O)c1ccnn1CC(F)F (stereo not drawn) | 5% | -0.62
27 | Cc1nc(CC(=O)NCCc2nc3c(s2)CCC3)cs1 | 3% | -0.41

Row | SMILES | % Inhibition | Z score
28 | O=C(Cc1ccsc1)NCc1nnc2cc(C(F)(F)F)ccn12 | 23% | -2.89
29 | CN1CCC[C@@H]1CCNc1nccc(-c2cnn(-c3ccccc3)c2)n1 | -3% | 0.44
30 | CC(C)=CCO[C@H]1CCOC[C@H]1NC(=O)c1ccc(-n2cnnc2)nc1 | 15% | -2.07
31 | COc1ncccc1C(=O)N[C@@H](C)Cn1cncn1 | -6% | 1.1
32 | Nc1nccnc1C(=O)Nc1ccc(-c2cn3c(n2)CCCC3)cc1 | -4% | 0.57
33 | c1cc(-c2ccn(Cc3nccs3)n2)cc(-c2nccc3occc23)c1 | -6% | 1.04
34 | CCN(C(=O)c1ccc(-c2cc(OC)nc(N)n2)cc1)[C@H]1COC[C@@H]1O | -17% | 1.54
35 | Cc1nc(C(C)C)oc1C(=O)N1CC[C@H](c2nnc[nH]2)C1 | -1% | 0.09
36 | CCc1nnc2c(NC(=O)Cc3ccccc3Cl)cccn12 | -11% | 1.76
37 | C=CCOc1ccc2c(c1)c(S(=O)(=O)c1ccc(C)cc1)cn2COC | -14% | 2.23
38 | CC(C)Oc1ccc2nnc(CCC(=O)N3CCOCC3)n2n1 | -3% | 0.48
39 | Cc1nn(CCO)cc1CN(C)Cc1cscn1 | 9% | -1.14
40 | Cc1nn(C)c(C)c1NC(=O)CNC(=O)[C@H]1CCCN(C(=O)c2cccc3ccccc23)C1 | -2% | 0.32
41 | Cc1cccnc1[C@H](C)NC(=O)c1ccc(NC(=O)c2ccoc2C)cc1 | 23% | -2.94
42 | Cc1ccncc1S(=O)(=O)N(C)C1CCN(C(C)C)CC1 | -2% | 0.2
43 | CC[C@H]1CC[C@H](C(=O)N2CCOC[C@@H]2CC(=O)O)CC1 | 1% | -0.13
44 | C[C@H](NC(=O)C1CC=CCC1C(=O)N1CCOCC1)c1ccccc1 (stereo partly drawn) | 3% | -0.51
45 | Cn1c(C(=O)N2CCC[C@H](C(=O)O)C2)ccc1-c1ccc(F)cc1 | 4% | -0.52
46 | Cc1ccc(NC[C@H]2CCN(CC(=O)N(C)c3nccs3)C2)nc1 | 0% | 0.04
47 | Cc1cc(C(=O)Nc2nnc(C3(c4ccccc4)CC3)s2)no1 | -9% | 1.45
48 | CN1C[C@H](NC(=O)c2cnccn2)CCC[C@@H](C(=O)N(C)Cc2cccnc2)CC1=O | 5% | -0.62
49 | O=C(c1cccnn1)N1CCC([C@@H](O)CCc2ccccc2)CC1 | -4% | 0.79
50 | COc1ccccc1-n1c(=O)n(C2CCCC2)c(=O)c2c1ncn2Cc1ccccc1Cl | 37% | -4.79
51 | CCNc1ncc(CN2C[C@@H]3CC[C@H]2CN(Cc2c(C)noc2C)C3)cn1 | -8% | 1.16
52 | O=C(Nc1ccc(F)cn1)N[C@H]1CCCc2occc21 | -5% | 0.65
53 | Cc1ccc(-c2nnc(NC(=O)c3ccc(=O)[nH]n3)[nH]2)o1 | -14% | 1.7
54 | O=C(c1ccccc1F)N1CCc2nc(N3CCCCC3)nc(N3CCOCC3)c2C1 | -2% | 0.25
